The record followed here is patent US20180289802A1 (CELGENE, published 2018).

Where two headings read alike, the source gives them in different places.

Test [1] has as its target T1, human PD-1 extracellular domain (residues 32-160), expressed in E. coli and refolded (human, UniProt Q15116 partial chain).
T1 construct: also called PD1_002; internally produced human PD1 antigen
Description: Biacore T200; antibody captured on Fc-specific anti-human IgG; human PD-1 (32-160) flowed at 100 nM to 200 pM. Background: In SPR one partner is held on a chip, and binding of the other changes the refractive index at the surface.

Test [2] addresses T2, human PD-1 expressed on cells (human, UniProt Q15116 partial chain).
T2 construct: also called human PD-1-CHO cells; CHO cells expressing human PD-1
The test can be described thus: flow cytometry on CHO cells expressing human PD-1; detection with anti-human IgG Fc (PE); x axis 'Primary Ab conc (nM)' with log ticks -3 to 3.

Test [3] deals with T3, cynomolgus PD-1 expressed on cells (cynomolgus monkey, UniProt B0LAJ3 25-288).
T3 construct: also called CHO cells expressing cynomolgus PD-1; PD-1 on cynomolgus T cells / PBMC
The test can be described thus: flow cytometry on CHO cells expressing cynomolgus PD-1, anti-human IgG Fc detection. A general note: A flow cytometer gives signals particle by particle.

In test [4] the target is T3, cynomolgus PD-1 expressed on cells. Description: cell-based or functional assay.
Test [5] shares this target. Description: flow cytometry on CHO cells expressing cynomolgus PD-1; detection with anti-human IgG Fc (PE); x axis 'Primary Ab conc (nM)' with log ticks -3 to 3.
Test [6] has as its target T2, human PD-1 expressed on cells. The test can be described thus: flow cytometry on CHO cells expressing human PD-1, anti-human IgG Fc detection.
In test [7] the target is T4, FcγRIIIa (V158) expressed on cells (UniProt P08637).
T4 construct: whole, on cells; also called FcγRIIIaV158-CHO
The test can be described thus: Cisbio Tag-lite displacement (FRET) on HEK293 cells expressing terbium-labelled FcγRIIIa (V158); competitor human IgG-d2.

The target in another test is T5, FcγRIIb (The Tag-lite receptor carries a labelling tag with a terbium donor dye; its letters are not given in the patent and are left out.).
T5 construct: also called FcγRIIb expressed on HEK293 cells
T5 chain: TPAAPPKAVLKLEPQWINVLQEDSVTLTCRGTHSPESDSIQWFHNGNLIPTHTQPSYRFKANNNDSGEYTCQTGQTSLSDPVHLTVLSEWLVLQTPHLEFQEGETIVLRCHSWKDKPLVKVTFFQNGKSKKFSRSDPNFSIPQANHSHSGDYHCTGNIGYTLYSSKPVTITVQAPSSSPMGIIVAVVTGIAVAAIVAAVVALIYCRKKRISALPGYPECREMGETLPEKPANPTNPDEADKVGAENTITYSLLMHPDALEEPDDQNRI
Description: Cisbio Tag-lite displacement (FRET) on HEK293 cells expressing terbium-labelled FcγRIIb; competitor human IgG-d2.

Test [8] concerns the target T6, FcγRI expressed on cells (UniProt P12314).
T6 construct: whole, on cells; In the HEK293 Tag-lite assay the receptor was prelabeled with a terbium donor dye; also called FcγRI-CHO; HEK293 cells expressing FcγRI
Description: Cisbio Tag-lite displacement (FRET) on HEK293 cells expressing terbium-labelled FcγRI; competitor human IgG-d2.

Test [9] deals with T1, human PD-1 extracellular domain …. Description: Biacore T200; antibody captured on Fc-specific anti-human IgG; human PD-1 (32-160) flowed at 100 nM to 200 pM. This is another data set of the same source.
Test [10] addresses T6, FcγRI expressed on cells. Description: FACS on FcγRI-CHO cells; detection with PE-conjugated F(ab')2 goat anti-human antibody; table row 'FcgR1'.

T3 sequence (B0LAJ3 entry or part of it limits assumed): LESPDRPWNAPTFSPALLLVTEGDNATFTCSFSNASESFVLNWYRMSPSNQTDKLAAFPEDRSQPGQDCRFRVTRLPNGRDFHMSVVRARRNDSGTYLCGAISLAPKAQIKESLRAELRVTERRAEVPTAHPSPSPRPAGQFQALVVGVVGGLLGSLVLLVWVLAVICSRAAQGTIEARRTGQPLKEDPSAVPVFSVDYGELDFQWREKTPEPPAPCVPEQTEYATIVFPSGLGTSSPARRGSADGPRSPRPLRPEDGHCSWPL
T2 sequence (Q15116 25-198 limits assumed): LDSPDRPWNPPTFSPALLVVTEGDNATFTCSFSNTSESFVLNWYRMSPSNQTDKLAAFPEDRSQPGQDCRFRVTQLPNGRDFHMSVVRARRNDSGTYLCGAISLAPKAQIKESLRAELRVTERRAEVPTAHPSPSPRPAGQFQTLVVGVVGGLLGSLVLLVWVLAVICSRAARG
T6 sequence (P12314 16-374 limits assumed): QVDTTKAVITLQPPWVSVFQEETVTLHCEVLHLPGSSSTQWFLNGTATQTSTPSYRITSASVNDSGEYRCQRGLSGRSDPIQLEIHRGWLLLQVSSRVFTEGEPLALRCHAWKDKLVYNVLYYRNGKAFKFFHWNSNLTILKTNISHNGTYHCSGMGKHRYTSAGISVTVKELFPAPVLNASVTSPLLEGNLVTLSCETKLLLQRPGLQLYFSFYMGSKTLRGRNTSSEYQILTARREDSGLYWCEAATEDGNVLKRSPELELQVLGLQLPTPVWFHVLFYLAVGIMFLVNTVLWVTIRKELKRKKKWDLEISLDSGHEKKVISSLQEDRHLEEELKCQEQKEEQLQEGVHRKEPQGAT
T4 sequence (P08637 17-254 F176V limits assumed): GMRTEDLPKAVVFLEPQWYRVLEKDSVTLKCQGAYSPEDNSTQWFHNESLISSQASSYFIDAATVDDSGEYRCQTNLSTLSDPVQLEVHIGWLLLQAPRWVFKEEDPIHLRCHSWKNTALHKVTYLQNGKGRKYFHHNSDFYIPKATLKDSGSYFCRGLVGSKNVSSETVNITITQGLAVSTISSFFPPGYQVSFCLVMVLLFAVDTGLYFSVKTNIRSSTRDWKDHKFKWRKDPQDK

B1: PD1AB-6-IgG1 (antibody)
heavy: EVQLVQSGAEVKKPGATVKISCKASGFNIKDTYMHWVQQAPGKGLEWMGRIDPANGDRKYDPKFQGRVTITADTSTDTAYMELSSLRSEDTAVYYCARSGPVYYYGSSYVMDYWGQGTTVTVSS[human IgG1 constant region not written out]
light: DIVMTQSPDSLAVSLGERATINCKSGQSVLYSSNQKNFLAWYQQKPGQPPKLLIYWASTRESGVPDRFSGSGSGTDFTLTISSLQAEDVAVYYCHQYLYSWTFGQGTKLEIKRTVAAPSVFIFPPSDEQLKSGTASVVCLLNNFYPREAKVQWKVDNALQSGNSQESVTEQDSKDSTYSLSSTLTLSKADYEKHKVYACEVTHQGLSSPVTKSFNRGEC
notes: also called IgG1_PD1AB-6; IgG1-PD1AB-6
In the case of B1, the Kd (commonly the free concentration of one partner at which half of the binding sites on the other are occupied at equilibrium, for simple one-to-one binding) in test [1] was ~19 nM. Further, the LogEC50 in test [2] worked out at 0.431 log nM; in [5], 0.806 log nM. Moreover, the EC50 (commonly the concentration giving half of the maximal effect) in [3] was 0.8 nM; in test [6], 0.4 nM. Further, the “IL-2 EC50 (nM), cynomolgus PBMC assay, NHP1” value in [4] came to 0.28 nM. Besides, the “IL-2 EC50 (nM), cynomolgus PBMC assay, NHP2” value in test [4] worked out at 4.9 nM.

B2: PD1AB-6-4P (antibody, human IgG4 S228P, kappa)
heavy: EVQLVQSGAEVKKPGATVKISCKASGFNIKDTYMHWVQQAPGKGLEWMGRIDPANGDRKYDPKFQGRVTITADTSTDTAYMELSSLRSEDTAVYYCARSGPVYYYGSSYVMDYWGQGTTVTVSSASTKGPSVFPLAPCSRSTSESTAALGCLVKDYFPEPVTVSWNSGALTSGVHTFPAVLQSSGLYSLSSVVTVPSSSLGTKTYTCNVDHKPSNTKVDKRV[human IgG4 Fc with S228P L445P (EU numbers) not written out]
light: DIVMTQSPDSLAVSLGERATINCKSGQSVLYSSNQKNFLAWYQQKPGQPPKLLIYWASTRESGVPDRFSGSGSGTDFTLTISSLQAEDVAVYYCHQYLYSWTFGQGTKLEIKRTVAAPSVFIFPPSDEQLKSGTASVVCLLNNFYPREAKVQWKVDNALQSGNSQESVTEQDSKDSTYSLSSTLTLSKADYEKHKVYACEVTHQGLSSPVTKSFNRGEC
notes: IgG4 backbone with S228P; also called PD1AB-6IgG4P
In test [7], B2 gave an EC50 of 6330 nM. Moreover, in test [4], the “IL-2 EC50 (nM), cynomolgus PBMC assay, NHP1” value was < 0.1 nM; the “IL-2 EC50 (nM), cynomolgus PBMC assay, NHP2” value was 1.24 nM; the “IL-2 EC50 (nM), cynomolgus PBMC assay, NHP3” value was 16.5 nM; the “IL-2 EC50 (nM), cynomolgus PBMC assay, NHP4” value was 1.23 nM. The molecule further came in with an EC50 with FcγRIIb of 7180 nM. In the test with FcγRI expressed on cells [8], this molecule displayed an EC50 of 869 nM. Also, the Kd in test [9] was ~22 nM. For the same molecule, in the test with FcγRI expressed on cells [10], it took 12.4 nM to reach a half-maximal effect (EC50).
